Among all 220,000 compounds or so, about 5,700 (2.6%) were called active. This list was built around the results that the source calls inconclusive (neither active nor inactive); the mix of calls is not that of the screen. The call rests on the fitted dose curve; in most records, active means well fitted inhibition curve with a large enough effect; inconclusive means small, poorly fitted or top-dose-only effect; inactive means no such curve, though single readings can be large or run the other way. Where the call is inconclusive, the potency comes from a doubtful curve fit.
molecular target: Lysine-specific demethylase 5B (Homo sapiens) (UniProt Q9UGL1); test: Primary screen for KDM5B Histone Demethylases FDH-coupled qHTS; settings: FDH-coupled NADH fluorescence (FDH is formaldehyde dehydrogenase); activity change, negative = inhibition: at 57.7 µM (top of the series) unless noted; further: nearly all actives have a fitted effect of over 70% in size; on activity change, negative = inhibition: 0% is about no effect
Procedure, shortened: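 Measured: NADH fluorescence change, 30 min, RT. System: KDM5BΔAP 200 nM final, H3K4me3 peptide, α-KG, Fe(II), ascorbate, NAD⁺ plus FDH, pH 7.5 HEPES. Compounds: titrated, 10 min pre-incubation with enzyme.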
Potency means the concentration at half of the fitted maximal effect; tags describe the fitted curve by direction and shape.

Sequence of UniProt Q9UGL1 (Q9UGL1 whole entry, looked up): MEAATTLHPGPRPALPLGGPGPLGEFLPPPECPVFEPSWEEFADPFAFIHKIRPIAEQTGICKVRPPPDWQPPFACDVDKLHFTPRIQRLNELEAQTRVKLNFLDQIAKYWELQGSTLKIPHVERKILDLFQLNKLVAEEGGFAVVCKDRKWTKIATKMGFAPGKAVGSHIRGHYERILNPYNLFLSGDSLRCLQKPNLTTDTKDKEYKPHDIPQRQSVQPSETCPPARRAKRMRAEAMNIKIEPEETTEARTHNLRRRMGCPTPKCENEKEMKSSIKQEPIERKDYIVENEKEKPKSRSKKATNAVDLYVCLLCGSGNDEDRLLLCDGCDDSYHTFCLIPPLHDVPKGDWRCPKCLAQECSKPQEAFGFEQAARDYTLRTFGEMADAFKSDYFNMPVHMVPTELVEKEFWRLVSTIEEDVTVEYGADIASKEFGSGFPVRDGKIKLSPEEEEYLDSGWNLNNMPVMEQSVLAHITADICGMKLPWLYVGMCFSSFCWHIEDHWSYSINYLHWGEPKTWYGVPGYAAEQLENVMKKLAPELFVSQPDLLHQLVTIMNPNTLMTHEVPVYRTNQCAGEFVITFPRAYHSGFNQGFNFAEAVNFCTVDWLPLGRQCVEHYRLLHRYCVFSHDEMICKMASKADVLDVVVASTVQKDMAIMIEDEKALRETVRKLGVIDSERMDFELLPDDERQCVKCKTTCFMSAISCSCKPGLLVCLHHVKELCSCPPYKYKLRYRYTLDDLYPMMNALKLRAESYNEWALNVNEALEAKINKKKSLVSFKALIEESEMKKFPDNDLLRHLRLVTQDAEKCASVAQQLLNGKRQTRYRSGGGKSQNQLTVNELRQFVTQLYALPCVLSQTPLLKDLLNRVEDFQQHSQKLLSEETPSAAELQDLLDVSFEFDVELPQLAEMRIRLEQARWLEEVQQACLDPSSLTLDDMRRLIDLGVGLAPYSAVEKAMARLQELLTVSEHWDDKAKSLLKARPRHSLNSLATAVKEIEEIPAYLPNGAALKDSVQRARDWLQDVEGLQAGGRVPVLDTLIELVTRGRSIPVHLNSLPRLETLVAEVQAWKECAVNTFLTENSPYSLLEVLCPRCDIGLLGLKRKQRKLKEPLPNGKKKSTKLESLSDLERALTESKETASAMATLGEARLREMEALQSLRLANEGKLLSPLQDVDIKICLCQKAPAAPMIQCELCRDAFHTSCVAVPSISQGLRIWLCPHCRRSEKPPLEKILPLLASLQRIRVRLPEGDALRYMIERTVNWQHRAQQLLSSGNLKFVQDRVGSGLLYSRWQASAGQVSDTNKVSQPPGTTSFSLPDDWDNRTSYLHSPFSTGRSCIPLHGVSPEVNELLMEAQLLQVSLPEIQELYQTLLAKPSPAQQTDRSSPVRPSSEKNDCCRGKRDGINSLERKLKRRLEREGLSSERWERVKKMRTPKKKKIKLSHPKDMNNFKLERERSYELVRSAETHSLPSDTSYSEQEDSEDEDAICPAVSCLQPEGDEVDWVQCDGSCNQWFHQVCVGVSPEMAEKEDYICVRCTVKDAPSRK

Structure (SMILES)	Potency	activity change, negative = inhibition
Cn1c(CNC(=O)c2cc[nH]c2C2CCCNC2)nc2ccccc21 (stereo not given)	active: 31.6 µM	–
CC(=O)Nc1c(C(=O)Nc2ccccc2F)oc2ccccc12	inconclusive: 39.8 µM [inhibitor, single point]	–
CCCNC(=O)N1CCCCCCNC(=O)[C@@H]2CCC[C@@H]21	inactive	–
Cc1cccc(-c2cccc3c4c([nH]c23)[C@@H]2C[C@H](N(C)C(=O)c3cccc(Cl)c3)[C@H]([C@H](C)O)CN2CC4)c1	inconclusive: 10 µM [inhibitor, partial curve, poor fit]	–
C=Cc1ccc(Cn2c(C(=O)OC)cc3sc(C)cc32)cc1	inconclusive: 39.8 µM [inhibitor, single point]	–
O=C(NC1CCCN(c2nc3ncccc3o2)C1)c1ccccc1 (stereo not given)	inconclusive: 25.1 µM [inhibitor, partial curve]	–
Cc1nnn2c(C(=O)NCc3ccc(Cl)nc3)cccc12	active: 35.5 µM	–
CCOCCn1c(N2CCN(Cc3ccc(Cl)c(Cl)c3)CC2)nc2c1c(=O)[nH]c(=O)n2C	inactive	–
COC(=O)c1c(NC(=O)c2c(OC)cccc2OC)sc2c1CCCC2	inconclusive: 35.5 µM [inhibitor, partial curve, poor fit]	–
CC1CCCCN1S(=O)(=O)c1ccc2[nH]c(=O)cc(C(=O)NCCc3ccc(Cl)cc3)c2c1 (stereo not given)	inconclusive: 28.2 µM [inhibitor, partial curve, poor fit]	–
Cc1ccc(NC(=O)N2CCC(n3cnnc3C3CC3)C2)c(Cl)c1 (stereo not given)	inactive	–
O=C(NC1CCCCC1)[C@@H]1Cc2nc[nH]c2CN1Cc1cc2ccccc2o1	inconclusive: 0.891 µM [inhibitor, full curve, poor fit]	–
COc1cc(C(=O)NC2CCCc3c2[nH]c2c(Cl)cccc32)cc(OC)c1OC (stereo not given)	inactive	–
CCCCN(C)C(=O)c1cc(-c2ccc(C)cc2)cn1CC	inconclusive: 14.1 µM [inhibitor, partial curve]	–
CNS(=O)(=O)c1cccc(C(=O)OCc2cc(=O)oc3c(C)c(C)ccc23)c1	inactive	–
Cc1nn(-c2ccccc2)c2c1cc1c(=O)[nH]c(=O)nc-1n2-c1cccc(C(F)(F)F)c1	inconclusive: 3.55 µM [inhibitor, full curve, poor fit]	–
COc1ccc(Nc2ncnc3c2cnn3C)c(OC)c1	–	inconclusive: -30.9% [inhibitor]
COCCn1cnc2c1c(=O)n(CC(=O)Nc1cc(F)ccc1F)c(=O)n2Cc1ccccc1	inactive	–
Cc1nn(C(=O)CCC(=O)N2CCC(Cc3nncn3CC3CC3)CC2)c2ccccc12	inconclusive: 28.2 µM [inhibitor, single point]	–
CCCN1CCC[C@H]1c1nc(-c2ccc(NCCOC)nc2)no1	inactive	–
CC(NC(=O)CSc1nnc(C2CC2)n1C1CC1)c1ccc2c(c1)CCCC2 (stereo not given)	inactive	–
CCOC(=O)c1ccc(NC(=O)Cn2c(-c3ccc(F)cc3)nc(C)c(CCO)c2=O)cc1	inactive	–
COC(=O)CNC(=O)c1nc(-c2cc(Cl)cc(Cl)c2)c2ccccn12	active: 25.1 µM	–

Structure (SMILES)	Potency	activity change, negative = inhibition
CC(C)(C)c1ccccc1NC(=O)c1ccc(F)cc1F	inactive	–
CC1=C[C@@H](CNC(=O)COc2ccccc2)[C@H](C(C)C)C[C@H]1Cc1nc2ccncc2[nH]1	inactive	–
CN(c1ccccc1)c1ccc2nnc(-c3cc(C(=O)NCc4cccnc4)ccn3)n2n1	active: 35.5 µM	–
CCOc1ccccc1C(=O)N1CCN(Cc2ccc(=O)n(C)c2)CC1	inconclusive: 15.8 µM [inhibitor, partial curve, poor fit]	–
Cc1ccc(Cl)cc1N1CCN(C(=O)C(C)n2ncn3cccc3c2=O)CC1 (stereo not given)	inconclusive: 39.8 µM [inhibitor, single point]	–
CCCCN(CCCC)C(=O)c1cc2c(=O)n3ccccc3nc2s1	inconclusive: 22.4 µM [inhibitor, partial curve, poor fit]	–
CCNC(=O)c1c(NC(=O)c2cc(=O)c3ccc(C)c(C)c3o2)sc2c1CCCC2	–	inconclusive: -30.8% [inhibitor]
Cc1cccc(N2CCN(S(=O)(=O)c3ccc(F)c(C(=O)Nc4cccc(Cl)c4C)c3)CC2C)c1 (stereo not given)	inconclusive: 17.8 µM [inhibitor, partial curve, poor fit]	–
COCCNc1oc(-c2ccc(C)cc2)nc1C#N	inconclusive: 1.78 µM [inhibitor, partial curve, poor fit]	–
CCCOc1nccnc1NC1CCN(C(=O)c2ccncc2)CC1	active: 28.2 µM	–
CN(Cc1cc(C2CC2)n[nH]1)c1nccc(-c2cccnc2)n1	active: 22.4 µM	–
O=c1cc2nc(-c3ccccc3)nc(SCc3cccc(Br)c3)n2[nH]1	inconclusive: 28.2 µM [inhibitor, partial curve, poor fit]	–
Cc1ccc2c(c1)N(C(=O)Cn1ccn3nc(-c4ccc(F)cc4)c(CO)c3c1=O)CCO2	inconclusive: 25.1 µM [inhibitor, single point]	–
CCOCCn1c(Br)nc2c1c(=O)n(C)c(=O)n2C	inactive	–
Cc1ccc2oc(-c3cccc(NC(=O)c4ccc(C#N)cc4F)c3)nc2c1	inactive	–
COc1ccc2c(c1)CCN1C2CCN2C(=O)CCC21 (stereo not given)	inconclusive: 31.6 µM [inhibitor, partial curve, poor fit]	–
COc1cccc(N2CCN(C(=O)c3cnc4c(C)cccn4c3=O)CC2)c1	inactive	–
C#Cc1cccc(NC(=O)c2n[nH]c(=O)c3ccccc23)c1	inactive	–
CN(C)C(=O)c1ccc2c(c1)n(Cc1cccc(F)c1)c(=O)c1ccnn12	active: 31.6 µM	–
CCN(CC)CCCNC(=O)C1CCC(CNS(=O)(=O)c2ccc(Cl)cc2)CC1 (stereo not given)	inconclusive: 28.2 µM [inhibitor, partial curve, poor fit]	–
COc1ccc(NC(=O)CN(C)CCOc2ccc(Cl)cc2)cc1OC	inconclusive: 2.51 µM [inhibitor, full curve, poor fit]	–
CCc1ccc(OCC(=O)NCC(c2ccc(Cl)cc2)N2CCOCC2)cc1 (stereo not given)	inconclusive: 28.2 µM [inhibitor, single point]	–

— PubChem BioAssay AID1347165 (National Center for Advancing Translational Sciences (NCATS), 2019)
